{"source": "the supplement of paper PMC8728848", "experiment_in_all_cases": "glycan array binding signal (z-score within array); higher = stronger binding", "details_in_all_cases": "glycan notation: IUPAC condensed, linker removed", "key": {"[1]": {"target": "Fuc(a1-2)Gal", "outline": "(§1)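 The Consortium for Functional Glycomics database supplied 3228 glycan arrays, of which those lacking an available protein sequence were dropped. The binding signal, a within-array Z-score, was averaged across arrays of the same protein sequence and across linkers. Negative scores can be read as non-binding.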"}, "[2]": {"target": "Fuc(a1-2)Gal(b1-3)GalNAc", "outline": "as §1"}, "[3]": {"target": "Fuc(a1-2)Gal(b1-3)GalNAc(a1-3)[Fuc(a1-2)]Gal(b1-4)Glc", "outline": "as §1"}, "[4]": {"target": "Fuc(a1-2)Gal(b1-3)GalNAc(a1-3)[Fuc(a1-2)]Gal(b1-4)GlcNAc", "outline": "as §1"}, "[5]": {"target": "Fuc(a1-2)Gal(b1-3)GalNAc(b1-3)Gal", "outline": "as §1"}, "[6]": {"target": "Fuc(a1-2)Gal(b1-3)GalNAc(b1-3)Gal(a1-4)Gal(b1-4)Glc", "outline": "as §1"}, "[7]": {"target": "Fuc(a1-2)Gal(b1-3)GalNAc(b1-4)[Neu5Ac(a2-3)]Gal(b1-4)Glc", "outline": "as §1"}, "[8]": {"target": "Fuc(a1-2)Gal(b1-3)GlcNAc", "outline": "as §1"}, "[9]": {"target": "Fuc(a1-2)Gal(b1-3)GlcNAc(b1-2)Man(a1-3)[Fuc(a1-2)Gal(b1-3)GlcNAc(b1-2)Man(a1-6)]Man(b1-4)GlcNAc(b1-4)GlcNAc", "outline": "as §1"}, "[10]": {"target": "Fuc(a1-2)Gal(b1-3)GlcNAc(b1-2)Man(a1-3)[Fuc(a1-2)Gal(b1-3)GlcNAc(b1-2)Man(a1-6)]Man(b1-4)GlcNAc(b1-4)[Fuc(a1-6)]GlcNAc", "outline": "as §1"}, "[11]": {"target": "Fuc(a1-2)Gal(b1-3)GlcNAc(b1-3)Gal(b1-4)Glc", "outline": "as §1"}, "[12]": {"target": "Fuc(a1-2)Gal(b1-3)GlcNAc(b1-3)GalNAc", "outline": "as §1"}, "[13]": {"target": "Fuc(a1-2)Gal(b1-3)GlcNAc(b1-3)[Fuc(a1-2)Gal(b1-3)GlcNAc(b1-6)]GalNAc", "outline": "as §1"}, "[14]": {"target": "Fuc(a1-2)Gal(b1-3)GlcNAc(b1-3)[Gal(b1-4)GlcNAc(b1-6)]Gal(b1-4)Glc", "outline": "as §1"}, "[15]": {"target": "Fuc(a1-2)Gal(b1-3)GlcNAc(b1-3)[Neu5Ac(a2-6)Gal(b1-4)GlcNAc(b1-6)]Gal(b1-4)Glc", "outline": "as §1"}, "[16]": {"target": "Fuc(a1-2)Gal(b1-3)GlcNAc6S", "outline": "as §1"}, "[17]": {"target": "Fuc(a1-2)Gal(b1-3)[Fuc(a1-4)]GlcNAc", "outline": "as §1"}, "[18]": {"target": "Fuc(a1-2)Gal(b1-3)[Fuc(a1-4)]GlcNAc(b1-2)Man(a1-3)[Fuc(a1-2)Gal(b1-3)[Fuc(a1-4)]GlcNAc(b1-2)Man(a1-3)]Man(b1-4)GlcNAc(b1-4)GlcNAc", "outline": "as §1"}, "[19]": {"target": "Fuc(a1-2)Gal(b1-3)[Fuc(a1-4)]GlcNAc(b1-2)Man(a1-3)[Fuc(a1-2)Gal(b1-3)[Fuc(a1-4)]GlcNAc(b1-2)Man(a1-6)]Man(b1-4)GlcNAc(b1-4)[Fuc(a1-6)]GlcNAc(b1-4)[Fuc(a1-6)]GlcNAc", "outline": "as §1"}, "[20]": {"target": "Fuc(a1-2)Gal(b1-3)[Fuc(a1-4)]GlcNAc(b1-3)[Fuc(a1-3)[Gal(b1-4)]GlcNAc(b1-6)]Gal(b1-4)Glc", "outline": "as §1"}, "[21]": {"target": "Fuc(a1-2)Gal(b1-3)[Fuc(a1-4)]GlcNAc(b1-3)[Gal(b1-4)GlcNAc(b1-6)]Gal(b1-4)Glc", "outline": "as §1"}, "[22]": {"target": "Fuc(a1-2)Gal(b1-4)Fuc(a1-3)]GlcNAc(b1-2)Man(a1-3)[Fuc(a1-2)Gal(b1-4)[Fuc(a1-3)]GlcNAc(b1-2)Man(a1-6)]Man(b1-4)GlcNAc(b1-4)GlcNAc", "outline": "as §1"}, "[23]": {"target": "Fuc(a1-2)Gal(b1-4)Glc", "outline": "as §1"}, "[24]": {"target": "Fuc(a1-2)Gal(b1-4)Glc6S", "outline": "as §1"}, "[25]": {"target": "Fuc(a1-2)Gal(b1-4)GlcNAc", "outline": "as §1"}, "[26]": {"target": "Fuc(a1-2)Gal(b1-4)GlcNAc(b1-2)Man", "outline": "as §1"}, "[27]": {"target": "Fuc(a1-2)Gal(b1-4)GlcNAc(b1-2)Man(a1-3)[Fuc(a1-2)Gal(b1-4)GlcNAc(b1-2)Man(a1-6)]Man(b1-4)GlcNAc(b1-4)GlcNAc", "outline": "as §1"}, "[28]": {"target": "Fuc(a1-2)Gal(b1-4)GlcNAc(b1-2)Man(a1-3)[Fuc(a1-2)Gal(b1-4)GlcNAc(b1-2)Man(a1-6)]Man(b1-4)GlcNAc(b1-4)[Fuc(a1-6)]GlcNAc", "outline": "as §1"}, "[29]": {"target": "Fuc(a1-2)Gal(b1-4)GlcNAc(b1-2)[Fuc(a1-2)Gal(b1-4)GlcNAc(b1-4)]Man(a1-3)[Fuc(a1-2)Gal(b1-4)GlcNAc(b1-2)Man(a1-6)]Man(b1-4)GlcNAc(b1-4)GlcNAc", "outline": "as §1"}, "[30]": {"target": "Fuc(a1-2)Gal(b1-4)GlcNAc(b1-3)Gal(b1-4)GlcNAc", "outline": "as §1"}, "[31]": {"target": "Fuc(a1-2)Gal(b1-4)GlcNAc(b1-3)Gal(b1-4)GlcNAc(b1-2)Man(a1-3)[Fuc(a1-2)Gal(b1-4)GlcNAc(b1-3)Gal(b1-4)GlcNAc(b1-2)Man(a1-6)]Man(b1-4)GlcNAc(b1-4)GlcNAc", "outline": "as §1"}, "[32]": {"target": "Fuc(a1-2)Gal(b1-4)GlcNAc(b1-3)Gal(b1-4)GlcNAc(b1-3)Gal(b1-4)GlcNAc", "outline": "as §1"}, "[33]": {"target": "Fuc(a1-2)Gal(b1-4)GlcNAc(b1-3)GalNAc", "outline": "as §1"}, "[34]": {"target": "Fuc(a1-2)Gal(b1-4)GlcNAc(b1-3)[Fuc(a1-2)Gal(b1-4)GlcNAc(b1-6)]GalNAc", "outline": "as §1"}, "[35]": {"target": "Fuc(a1-2)Gal(b1-4)GlcNAc(b1-3)[Fuc(a1-3)[Gal(b1-4)]GlcNAc(b1-6)]Gal(b1-4)Glc", "outline": "as §1"}, "[36]": {"target": "Fuc(a1-2)Gal(b1-4)GlcNAc(b1-6)GalNAc", "outline": "as §1"}, "[37]": {"target": "Fuc(a1-2)Gal(b1-4)GlcNAc6S", "outline": "as §1"}}, "note": "The other results are listed elsewhere or left out."}
{"binder": "AT5G01260(PC)(40) (Arabidopsis thaliana), Q9LFB0 (protein) MIGIGRTLTSSSPSKIILEDLPPGIYRYGTEIFTSVPRKTFHHIKFLRLDSAQSSRILKPVPLRSSSIKDSQVNVEDEEIEASNKTVRVRFQLRKECVFGEHFFIVGDDPVFGGLWDPETALPLNWSDGNVWTVDLDLPVGRLVEFKLLLKAQTGEILWQPGPNRALETWETNKTIRICEDWDNADLQMMIEEDFVPYTNISSIGSEDEDEVLGSVQQNSSVVAVENAGYVSDESAQNSSFSIQSEKTMEPSNGALTAREVIKEAMFTEEESPVLVPGLIPLSDLDNEQVEVINEGKAETFPEVDKKQEPKAERNKKAKVKAISLFEKSEQEAVKSVEQRQYNAVEEEQQRLETEPLGTPDVLFENDIQWGRRTLYKLLSNFRLF", "values": [{"measurement": "glycan array binding signal (z-score)", "setting": "[1]", "value": 0.338}, {"measurement": "glycan array binding signal (z-score)", "setting": "[2]", "value": 0.117}, {"measurement": "glycan array binding signal (z-score)", "setting": "[3]", "value": -0.535}, {"measurement": "glycan array binding signal (z-score)", "setting": "[4]", "value": -0.701}, {"measurement": "glycan array binding signal (z-score)", "setting": "[5]", "value": -0.3}, {"measurement": "glycan array binding signal (z-score)", "setting": "[6]", "value": -0.368}, {"measurement": "glycan array binding signal (z-score)", "setting": "[7]", "value": 0.463}, {"measurement": "glycan array binding signal (z-score)", "setting": "[8]", "value": -0.85}, {"measurement": "glycan array binding signal (z-score)", "setting": "[9]", "value": 0.426}, {"measurement": "glycan array binding signal (z-score)", "setting": "[10]", "value": 0.053}, {"measurement": "glycan array binding signal (z-score)", "setting": "[11]", "value": 0.042}, {"measurement": "glycan array binding signal (z-score)", "setting": "[12]", "value": -0.024}, {"measurement": "glycan array binding signal (z-score)", "setting": "[13]", "value": -0.339}, {"measurement": "glycan array binding signal (z-score)", "setting": "[14]", "value": -0.343}, {"measurement": "glycan array binding signal (z-score)", "setting": "[15]", "value": 0.28}, {"measurement": "glycan array binding signal (z-score)", "setting": "[16]", "value": -0.439}, {"measurement": "glycan array binding signal (z-score)", "setting": "[17]", "value": -0.288}, {"measurement": "glycan array binding signal (z-score)", "setting": "[18]", "value": 0.142}, {"measurement": "glycan array binding signal (z-score)", "setting": "[19]", "value": 0.621}, {"measurement": "glycan array binding signal (z-score)", "setting": "[20]", "value": -0.659}, {"measurement": "glycan array binding signal (z-score)", "setting": "[21]", "value": 0.746}, {"measurement": "glycan array binding signal (z-score)", "setting": "[22]", "value": 0.179}, {"measurement": "glycan array binding signal (z-score)", "setting": "[23]", "value": -0.198}, {"measurement": "glycan array binding signal (z-score)", "setting": "[24]", "value": -0.115}, {"measurement": "glycan array binding signal (z-score)", "setting": "[25]", "value": 0.165}, {"measurement": "glycan array binding signal (z-score)", "setting": "[26]", "value": -0.48}, {"measurement": "glycan array binding signal (z-score)", "setting": "[27]", "value": -0.183}, {"measurement": "glycan array binding signal (z-score)", "setting": "[28]", "value": -0.417}, {"measurement": "glycan array binding signal (z-score)", "setting": "[29]", "value": -0.149}, {"measurement": "glycan array binding signal (z-score)", "setting": "[30]", "value": -0.638}, {"measurement": "glycan array binding signal (z-score)", "setting": "[31]", "value": 0.758}, {"measurement": "glycan array binding signal (z-score)", "setting": "[32]", "value": -0.994}, {"measurement": "glycan array binding signal (z-score)", "setting": "[33]", "value": 0.063}, {"measurement": "glycan array binding signal (z-score)", "setting": "[34]", "value": -0.44}, {"measurement": "glycan array binding signal (z-score)", "setting": "[35]", "value": -0.45}, {"measurement": "glycan array binding signal (z-score)", "setting": "[36]", "value": 0.107}, {"measurement": "glycan array binding signal (z-score)", "setting": "[37]", "value": -0.603}]}
